Article PMC4336329 (PLoS ONE, 2015)
The campaign covered roughly 310,000 compounds. About 2,200 (0.71%) showed an effect of 50% or more. Effects have a minus sign here. The list shows a part of the results.

target: human ether-à-go-go-related gene (hERG) potassium channel (human, UniProt Q12809); assay: primary screen, population patch clamp on CHO cells stably expressing hERG
Sequence (Q12809 whole entry, looked up): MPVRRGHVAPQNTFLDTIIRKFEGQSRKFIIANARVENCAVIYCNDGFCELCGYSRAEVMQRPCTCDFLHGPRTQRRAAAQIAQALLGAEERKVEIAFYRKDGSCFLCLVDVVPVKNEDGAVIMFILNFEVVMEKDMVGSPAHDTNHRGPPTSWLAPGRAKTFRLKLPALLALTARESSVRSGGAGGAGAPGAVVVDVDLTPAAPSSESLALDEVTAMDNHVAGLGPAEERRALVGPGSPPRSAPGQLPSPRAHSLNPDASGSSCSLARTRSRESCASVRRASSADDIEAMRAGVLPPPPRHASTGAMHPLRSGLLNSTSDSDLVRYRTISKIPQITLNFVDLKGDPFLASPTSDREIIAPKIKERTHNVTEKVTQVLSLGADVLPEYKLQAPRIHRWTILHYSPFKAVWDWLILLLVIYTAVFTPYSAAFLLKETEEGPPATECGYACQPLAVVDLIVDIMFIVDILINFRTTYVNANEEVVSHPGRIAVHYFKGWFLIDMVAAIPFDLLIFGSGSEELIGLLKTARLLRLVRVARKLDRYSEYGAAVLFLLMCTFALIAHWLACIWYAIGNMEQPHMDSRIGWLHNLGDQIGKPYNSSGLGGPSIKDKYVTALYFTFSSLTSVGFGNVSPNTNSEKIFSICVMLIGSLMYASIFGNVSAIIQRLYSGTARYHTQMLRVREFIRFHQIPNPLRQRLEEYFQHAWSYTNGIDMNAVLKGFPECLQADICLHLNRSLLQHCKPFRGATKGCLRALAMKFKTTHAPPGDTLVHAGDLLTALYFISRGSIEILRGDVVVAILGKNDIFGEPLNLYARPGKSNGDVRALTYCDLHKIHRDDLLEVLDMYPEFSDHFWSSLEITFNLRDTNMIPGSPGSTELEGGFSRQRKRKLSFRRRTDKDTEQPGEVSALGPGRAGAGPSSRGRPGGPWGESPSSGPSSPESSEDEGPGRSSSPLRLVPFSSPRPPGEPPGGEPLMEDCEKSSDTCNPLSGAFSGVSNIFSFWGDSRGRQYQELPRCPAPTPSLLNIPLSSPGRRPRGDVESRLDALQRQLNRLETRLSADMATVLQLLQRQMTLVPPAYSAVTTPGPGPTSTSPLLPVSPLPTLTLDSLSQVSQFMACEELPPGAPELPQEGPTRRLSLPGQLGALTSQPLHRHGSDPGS

Row | SMILES | hERG current change (%, negative = inhibition) at 1uM
1 | O=C(CCC1CCCCC1)NCc1cccnc1 | 10.2%
2 | CC[N+](CC)(CC)CC.[Cl-] | 8.39%
3 | Cn1cc(/C=C(\C#N)C(=O)Nc2ncc(Cc3cccc(Cl)c3)s2)c2ccccc21 | 3.39%
4 | COc1cccc(OC)c1OCCCCc1c(C)n[nH]c1C.Cl | 6.8%
5 | O=C(NN1C(=O)c2ccccc2C1=O)C1CC2CCC1C2 (centres unmarked) | 15%
6 | CSCc1ccc(C(=O)N2CCC(CCC(=O)N(C)Cc3ccccc3)CC2)o1 | -26.1%
7 | COc1cccc(-c2cc3nc4c(c(N5CCC6(CC5)OCCO6)n3n2)CCCC4)c1 | 5.8%
8 | CCOC(=O)C1(CC2CCCCO2)CCN(S(=O)(=O)c2ccsc2)CC1 (centres unmarked) | 6.56%
9 | Cc1cccc(C(=O)O/N=C2/CC3CCC2(C)C3(C)C)c1 (centres unmarked) | 1.18%
10 | COc1cccc(/C=N/NC(=O)c2ccc(=O)n(C)c2)c1O | 16.3%
11 | COc1ccc(-c2ccc(-c3noc(C(C)C)n3)c(OC)n2)cc1 | 13.7%
12 | C=CCn1c(SCC(=O)c2cccs2)nc2sc(C)c(C)c2c1=O | 10.2%
13 | Cc1cc(C(=O)N/N=C/c2ccc(-c3cccc([N+](=O)[O-])c3)o2)n[nH]1 | 8.12%
14 | CCCCNC(=O)/C(C#N)=C/c1ccc(-c2ccc(S(=O)(=O)N3CCOCC3)cc2)o1 | 9.42%
15 | CCCc1cc(N2CCOCC2)n2nc(C)c(-c3ccccc3)c2n1 | 10.1%
16 | Cc1[nH]c2c([N+](=O)[O-])cccc2c1C | 8.43%
17 | Cc1ccc(OCC(=O)Nc2ccc3oc(=O)ccc3c2)cc1C | 6.43%
18 | COc1ccc(CN2C(=O)c3ccccc3C2=O)cc1 | 13.5%
19 | O=C(O)c1cccc(-c2noc(-c3cccc(Cl)c3)n2)c1 | 7.46%
20 | S=C(NCCc1c[nH]c2ccccc12)NC1CC1 | 4.2%
21 | COc1ccc(C(=O)c2c3ccccc3[n+]([O-])n2CCC[NH3+])cc1.O=C([O-])C(F)(F)F | -3.47%
22 | COc1ccc(Nc2c3c(nc4ccccc24)CCCC3)cc1OC | -78%
23 | CC1CCC(NC(=O)c2ccc(NC3=NC4CS(=O)(=O)CC4S3)cc2)CC1 (centres unmarked) | 14.6%

Row | SMILES | hERG current change (%, negative = inhibition) at 1uM
24 | C=CCn1c(SCC(=O)c2cccs2)nnc1-c1cccc(OC)c1 | 12.2%
25 | O=C(CN1C(=O)c2ccccc2C1=O)NNC1=NS(=O)(=O)c2ccccc21 | 8.39%
26 | Cc1ccc(S(=O)(=O)N(C)Cc2nc(-c3ccc(Br)cc3)no2)cc1 | 8.05%
27 | COC(=O)c1cc(C)sc1NC(=O)c1ccco1 | 13.5%
28 | COc1ccc(C(=O)OCCOc2ccccc2C(C)=O)c(O)c1 | 15.2%
29 | O=C(Nn1c(O)c(C=C2N=c3ccccc3=N2)sc1=S)c1ccccc1 | 13.6%
30 | CCOC(=O)N/N=C\c1ccc(OC(=O)c2ccc3c(c2)OCO3)cc1 | 7.59%
31 | COc1ccc2oc(C(=O)Nc3nnc(C)s3)c(C)c2c1 | -0.337%
32 | COc1ccc(OC)c(S(=O)(=O)N2CCN(c3ccccc3OC)CC2)c1 | 6.97%
33 | O=C(CCl)Nc1cn(-c2ccccc2)nc1-c1ccc(F)cc1 | 0.571%
34 | Cc1ccc(Nc2nc(NCCCN3CCOCC3)nc(N)c2[N+](=O)[O-])cc1C | 4.15%
35 | Cc1ccc2c(c1)n([O-])c1c([n+]2=O)CCCC1 | 11%
36 | NC(=O)CC(NC(=O)c1ccccc1)c1ccc(NCc2ccc(F)cc2)c([N+](=O)[O-])c1 (centres unmarked) | -14.3%
37 | N#CC1CC(c2ccccc2)Nc2cc(Cl)ccc2N1 (centres unmarked) | -1.46%
38 | O=C1N(CN2CCN(c3cccc(Cl)c3)CC2)c2ccccc2C12OCCCO2 | 4.08%
39 | CCOC(=O)C1CCN(S(=O)(=O)c2ccc3c(c2)NC(=O)CS3)CC1 | -6.03%
40 | Cc1cc(C(F)(F)F)nn1CC(=O)Nc1cccnc1 | 11.6%
41 | CCC1(C)Cc2ccccc2C(Nc2c(C)n(C)n(-c3ccccc3)c2=O)=N1 (centres unmarked) | 13.1%
42 | CCCCCCOc1ccc(C(CC(=O)NC)C(=O)O)cc1 (centres unmarked) | 7.29%
43 | COC(=O)c1ccc(C2Nc3ccc(/C(C)=N/NC(=O)C(OC)c4ccccc4)cc3C3C=CCC32)cc1 (centres unmarked) | -23.3%
44 | O=C(Nc1ccc(N2CCOCC2)c(Cl)c1)c1c(F)c(F)c(F)c(F)c1F | -10.1%
45 | Nc1ncnc(NCc2ccccc2)c1[N+](=O)[O-] | 13%
46 | O=C(Nc1ccc(Cl)cc1Cl)N1CCN(c2ncccn2)CC1 | 0.422%

Row | SMILES | hERG current change (%, negative = inhibition) at 1uM
47 | CCCCSCCCNC(=O)C1CCC(CNS(=O)(=O)c2ccc(NC(C)=O)cc2)CC1 (centres unmarked) | 14.1%
48 | COc1ccc(C(=O)C2CCCN(Cc3ccc4nonc4c3)C2)cc1OC (centres unmarked) | -11%
49 | COC(=O)CCC(=O)NC(=S)Nc1cc(Cl)ccc1Cl | 12.5%
50 | COc1ccc(C(=O)CSC2=C(C#N)C3(CCCCC3)C(C#N)=C(N)N2)cc1 | 8.88%
51 | Cc1cc(C(=O)Nc2ccc(C(=O)O)cc2)c(C)o1 | 11.7%
52 | CCO[C@H]1OC(C(=O)N2CCN(Cc3ccc4c(c3)OCO4)CC2)=C[C@@H](c2ccc(Br)cc2)[C@@H]1CCCO | 4.66%
53 | O=C(NCCC1CCCCN1S(=O)(=O)c1ccc(F)cc1)C(=O)NC1CCCC1 (centres unmarked) | 2.04%
54 | Cc1c(Cl)cccc1NC(=O)CS(=O)(=O)c1ccccc1 | 12.2%
55 | COc1ccc2nc(SCC(=O)Nc3ccc4c(c3)OCCO4)[nH]c2c1 | -11%
56 | CCn1c(SCC(=O)NCc2cccs2)nnc1-c1ccco1 | 14.2%
57 | CC(C#Cc1c([C@@H](C)Oc2ccccc2)nnn1Cc1ccccc1)Oc1ccccc1 (some centres unmarked) | 14.3%
58 | Cc1nc2ccccc2nc1OCc1cccc(Cl)c1 | 8.53%
59 | CC(C)(C)c1cc(CCC(=O)NCc2cccnc2)cc(C(C)(C)C)c1O | 14.2%
60 | O=C(C(=O)N1CCN(Cc2ccc3c(c2)OCO3)CC1)c1c[nH]c2ccccc12 | 11.7%
61 | CCc1ccccc1NC(=O)c1ccc([N+](=O)[O-])s1 | 0.861%
62 | COc1ccc(-c2[nH]ncc2CNCc2cc(C)n(C)n2)c(F)c1 | 5.74%
63 | CC1(C)NC(=O)N(CC(O)CN2C(=O)CCC2=O)C1=O (centres unmarked) | 1.23%
64 | O=C(c1ccc2c(c1)OCO2)C1CCCN(C(=O)NCc2ccccc2)C1 (centres unmarked) | 8.12%
65 | CS(=O)(=O)N(CC(=O)NC1CCCCCC1)Cc1ccc(Cl)cc1 | -0.622%
66 | CCC1Oc2ccc(C)cc2N(CC(=O)N(Cc2cccnc2)Cc2cccc(F)c2)C1=O (centres unmarked) | 12.3%
67 | Cn1c(O)c(/C=N/N2CCOCC2)c(=O)[nH]c1=S | 13.9%
68 | On1cnnc1-c1ccccc1 | 8.21%
69 | S=c1nc(Cc2ccc(Cl)cc2)[nH]c2ccccc12 | 17.6%

Row | SMILES | hERG current change (%, negative = inhibition) at 1uM
70 | C/C(N)=C(/C#N)C(=O)CSc1nc2cc(Cl)ccc2c(=O)n1-c1ccc(C)cc1 | 12.5%
71 | Clc1ccccc1CNc1ncnc2nc[nH]c12 | 11.1%
72 | O=C(CCS(=O)(=O)c1ccccc1)NC1CCCCC1 | 18.8%
73 | COc1ccccc1OCCSc1nc2ccccc2n1CCO | 17.3%
74 | COc1ccc(C)cc1N(C(=O)c1ccco1)C(C(=O)NC1CCCC1)c1cc(OC)c(OC)c(OC)c1 (centres unmarked) | 3.94%
75 | Cc1ccc(S(=O)(=O)N2CCC(C(=O)OCC(=O)N3CCc4ccccc43)CC2)cc1 | -9.78%
76 | CCCCn1c(/N=C/c2ccccc2NS(=O)(=O)c2ccc(C)cc2)nc2ccccc21 | 0.0382%
77 | CCOc1ccc(N2CC(C(=O)Nc3cccc(C)c3C)CC2=O)cc1 (centres unmarked) | 10.6%
78 | COc1ccc2c(c1)OC(O)(C(F)(F)C(F)F)CC2=O (centres unmarked) | -1.89%
79 | CC(C)C(=O)N1CCN(c2ccc(NC(=O)COc3ccccc3[N+](=O)[O-])cc2)CC1 | -2.41%
80 | COc1ccc(-c2nc3ccc(N4CCCC4)cc3c(=O)[nH]2)cc1OC | 9.23%
81 | COc1ccc(NC(=O)Nc2nnc(-c3ccccc3F)s2)cc1 | 17.7%
82 | Cc1cc(/C=N/O)c(C)n1-c1cccc(Cl)c1 | -0.795%
83 | COC(=O)C1=C(c2c(C)noc2C)C[C@@H]2CC[C@H]1N2C(=O)NCc1ccc2c(c1)OCO2 | -1.92%
84 | COC(=O)c1cccc(C(=O)N2CCC(CCC(=O)NCc3ccc(F)cc3)CC2)c1 | 6.1%
85 | COc1ccc(CCNC(=O)C2CCN(S(=O)(=O)c3cnc[nH]3)CC2)cc1OC | 12.2%
86 | Cc1ccc(CNC(=O)CN(C2CCCCC2)S(C)(=O)=O)cc1 | 5.75%
87 | S=C1NC2=C(CCCC2=C2SCCCS2)C(c2ccccc2)N1 (centres unmarked) | 18%
88 | COc1ccc(-c2cc(-n3c(C(F)(F)F)nc4ccccc43)n(CCC#N)n2)cc1 | 9.09%
89 | NC(=O)CC(NC(=O)c1cccc(Br)c1)c1ccc(N2CCCCCC2)c([N+](=O)[O-])c1 (centres unmarked) | -1.98%
